# Assay results reported in PubChem BioAssay AID1346378 (National Center for Advancing Translational Sciences (NCATS), 2018).
# Where “and” joins values, the source holds several entries; their conditions need not be identical. Equal values may be shown once. In all, about 420,000 compounds went through this assay and about 540 (0.13%) were called active. The shares of active, inactive and inconclusive entries below differ from those in the screen. Cut-off read from the data, not from the text of the source: active = activity change below about -50%; inconclusive = mostly about -30% to -49%; inactive = weaker than that.
# Biological target: Phosphatidylinositol 4-kinase type 2-alpha (Homo sapiens) (UniProt Q9BTU6)
# Sequence of UniProt Q9BTU6 (Q9BTU6 whole entry, looked up): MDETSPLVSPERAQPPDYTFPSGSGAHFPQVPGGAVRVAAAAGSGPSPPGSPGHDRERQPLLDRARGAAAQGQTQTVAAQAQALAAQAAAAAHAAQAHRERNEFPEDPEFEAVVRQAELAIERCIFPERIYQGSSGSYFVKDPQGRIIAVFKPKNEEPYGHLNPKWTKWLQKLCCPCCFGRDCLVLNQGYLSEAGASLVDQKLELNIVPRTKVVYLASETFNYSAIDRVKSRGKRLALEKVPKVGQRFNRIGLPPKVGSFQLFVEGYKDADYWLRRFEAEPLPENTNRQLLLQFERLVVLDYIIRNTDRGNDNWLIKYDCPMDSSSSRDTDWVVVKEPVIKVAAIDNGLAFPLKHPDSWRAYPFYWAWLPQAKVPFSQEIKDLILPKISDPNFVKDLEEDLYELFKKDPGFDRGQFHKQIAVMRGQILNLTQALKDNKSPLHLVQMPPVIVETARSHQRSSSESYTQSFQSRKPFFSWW
# Assay: qHTS for small molecular inhibitors of PI4K2A;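 note: -100% = wells without enzyme as full effect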
# Conditions: purified PI4K2A, ADP-Glo luminescence, 1 h; at 76.9 µM, stronger effect = lower value
# Summary of the method: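 In this quantitative HTS, ADP production by PI4K2A was quantified luminescently after 1 h at ambient temperature; 100 microM adenosine served as plate-quality control.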
row,SMILES,"activity change, negative = inhibition"
1,CCCc1ccc(C(=O)O/N=C(\N)c2ccccn2)cc1,active: -85.1%
2,C=CCN1C=C/C(=C\C=C(C#N)C#N)c2ccccc21,inconclusive: -33.8%
3,CC(C)(C)c1cc(C(=O)CCN2CCOCC2)cc(C(C)(C)C)c1O,inactive: 24.3%
4,NC(=O)SCC(=O)Nc1cccc(Cl)c1,inconclusive: -42.6%
5,Oc1c(Cl)cc(CN2CCOCC2)c2cccnc12,inconclusive: -33.1%
6,O=C(Nc1nccs1)c1cc2c(s1)CCCCC2,inconclusive: -33.6%
7,Nc1ncnc2c1ncn2C1CCCC1,active: -53.4% and active: -65.5%
8,COc1cc(C)nc(N2CCCC(C(=O)Nc3ccccc3Br)C2)n1 (stereo unspecified),inconclusive: -44.1%
9,COc1ccc(/C=N/Nc2nccnc2Cl)cc1,inconclusive: -32%
10,CCOC(=O)c1sc2nc(N3CCOCC3)c3c(c2c1N)CCCC3,inactive: 9.96%
11,Nc1ccc(N(CCO)CCO)cc1,active: -51.8%
12,O=C1C=CC2=C3c4cc(O)c(O)cc4CC3(O)COC2=C1O (stereo unspecified),inconclusive: -34.8%
13,CN(CCC#N)C(=O)COC(=O)c1c2c(nc3ccccc13)/C(=C\c1ccco1)CC2,active: -51.7%
14,COc1ccc(/C=C2\SC(N3CCc4ccccc4C3)=NC2=O)cc1OC,inconclusive: -42.2%
15,Nc1ccc(-c2cnc[nH]2)cc1[N+](=O)[O-],active: -50.6%
16,CCCN1CCCc2cc(CN)ccc21,inconclusive: -35.3%
17,COC(=O)Cc1c(C)c2cc3c(c(C)c2oc1=O)OCN(CCc1ccc(F)cc1)C3,inactive: 0.588%
18,O=c1ccc(Br)c[nH]1,inconclusive: -36.2%
19,COc1ccc(OCC(O)CNC(=O)c2ccc(Br)cc2)cc1 (stereo unspecified),inactive: -2.34%
20,Cc1ccsc1C(=O)Nc1ccc(C(=O)O)cc1,active: -74%
21,CN(C(=O)Nc1cn(C)c(=O)c2ccccc12)c1ccccc1,inconclusive: -32.4%
22,CC(=O)c1ccc(NC(=O)c2ccn[nH]2)cc1,inconclusive: -47%
23,CSc1nc(N)n2nc(-c3ccc(Cl)cc3)cc2n1,inconclusive: -31.1%

row,SMILES,"activity change, negative = inhibition"
1,c1ccc(-c2cnc(-c3ccccn3)nn2)cc1,inconclusive: -35.6%
2,CCc1ccn2cc(-c3ccc4c(c3)OCO4)nc2c1,inconclusive: -31.7%
3,COc1ccc(C)cc1NC(=O)C1CCN(S(=O)(=O)c2c(C)noc2C)CC1,inactive: -2.11%
4,CN(C)S(=O)(=O)c1cccc(-c2nn(-c3ccccc3)cc2/C=C2\SC(=S)NC2=O)c1,inactive: -6.79%
5,Nc1c(C(=O)OCC(=O)Nc2ccc(Cl)cc2[N+](=O)[O-])[nH]c(=O)[nH]c1=O,inconclusive: -37%
6,Cc1cccc(C(=O)Nc2cccc(OCc3cc(=O)n4c(C)csc4n3)c2)c1,inactive: 5.23%
7,N#CC1=C(S)N(c2ccccc2)C2(CCCCC2)NC1=O,inactive: -3.24%
8,N#Cc1c2c(c(=S)n(-c3ccccc3)c1N)CCCC2,inactive: -4.18%
9,C/C=C/C=C\C(=O)Nc1cccc(C2=NOC3(C2)C[C@H](C(N)=O)N(C(=O)CC#N)C3)c1 (stereo partly specified),inconclusive: -34%
10,COC(=O)[C@@]12C[C@@H](CC(=O)NCc3ccc(C)o3)C(=O)N(Cc3ccccc3)C1=CCC(C)(C)C2,inactive: 4.22%
11,CC1=NN(c2ccccc2)C(=O)C1C(=O)C(=O)Nc1ccc(F)cc1 (stereo unspecified),inconclusive: -38.1%
12,NC(=O)c1ccc(NC(=O)CCCNC(=O)c2ccc(Cl)cc2)cc1,inactive: 7.3%
13,O=C(O)c1ccc(NC2=C/C(=N/S(=O)(=O)c3ccccc3)c3ccccc3C2=O)cc1,inconclusive: -44.5%
14,O=C1c2ccccc2-c2onc3c(NCCO)cc(NC4CCCCC4)c1c23,inconclusive: -41.6%
15,Fc1ccc2nc3[nH]c4ccccc4c3nc2c1,inconclusive: -47.4%
16,CCCc1cc(CNC(=O)C2CCC(=O)N(Cc3ccccc3OC)C2)on1 (stereo unspecified),inactive: 2.33%
17,Oc1c(C=Nc2ccccc2)sc2ccccc12,inconclusive: -49.3%
18,COc1ccc2[nH]c(-c3ccc(C)cc3)cc(=O)c2c1,inconclusive: -31.8%
19,CCOC(=O)C1CCN(C(=O)N2CCOCC2)CC1,active: -89.7%
20,CCOc1ccccc1CNC(=O)c1ccc(Cn2c(SCc3ccccc3)nc3cccnc32)cc1,inactive: 1.05%
21,CCc1cccc(CC)c1N(COC)C(=O)Cn1c(C)nc2ccccc21,inconclusive: -31.4%
22,Cc1cc(C)cc(C(N)=Nc2cccc(C#N)c2)c1,inactive: 6.59%
23,O=C1c2ccccc2-c2onc3c(N4CCN(CCO)CC4)cc(N4CCN(C(=O)c5ccco5)CC4)c1c23,inconclusive: -34.2%

row,SMILES,"activity change, negative = inhibition"
1,CCOC(=O)c1cnc(Nc2nc3ccccc3o2)nc1C,inactive: -4.31%
2,COc1ccccc1-c1oc2ccccc2c1-c1ccc2c(c1)OCO2,inconclusive: -49.9%
3,COc1ccc(N=C2NC(=O)/C(=C\C=C\c3ccco3)S2)cc1,inconclusive: -45%
4,O=c1cc2oc3cc(O)c(O)cc3c(-c3ccccc3[N+](=O)[O-])c-2cc1O,inconclusive: -36.4%
5,COc1ccc(CNC(=O)CN(C)c2nn3c(=O)cc(C)nc3s2)cc1,inactive: 3.67%
6,CCN(CC)CCOC(=O)c1ccc(NC(=O)c2nn(-c3ccc(C)cc3)c(=O)c3c2c2ccccc2n3C)cc1,inactive: -2.05%
7,O=C1NN(c2ccc(Cl)c(Cl)c2)C(=O)/C1=C/c1ccc(-c2ccccc2C(=O)O)o1,inconclusive: -35.5%
8,c1ccc2nc(-c3nc4ccccc4o3)ccc2c1,inconclusive: -35.6%
9,Cc1ccc(NC2=CC(=O)C(=O)c3ccccc32)c(C)c1,inconclusive: -32.6%
10,Cc1ccc(C(=O)/C=C/Nc2ccccn2)cc1,inconclusive: -32.9%
11,O=C1CCN(CCc2ccccc2)CCN1[C@H](CSc1ccccc1)c1ccccc1,active: -63.2%
12,CN(C)c1ccc(/C=N/NC(=O)c2ccnn2C)cc1,inconclusive: -41.3%
13,COc1ccccc1C(=O)Nc1nc2ccccc2s1,active: -71.5%
14,CC(=O)OCC(=O)c1ccc2ccn(C(C)=O)c2c1,inactive: -6.51%
15,Cc1c(C#N)c(NC(=O)CCl)n(Cc2ccc(F)cc2)c1C,inactive: 35.3%
16,Fc1cccc(Nc2nc(Cl)nc(Cl)n2)c1,inconclusive: -31.6%
17,CCC(C)c1ccc(S(=O)(=O)N2CCN(C(=O)c3ccc(Cl)c(S(=O)(=O)N4CCOCC4)c3)CC2)cc1 (stereo unspecified),inactive: -1.4%
18,CC1=NN(c2ccccc2)C(=O)/C1=C\c1ccc(Oc2ccc([N+](=O)[O-])cc2[N+](=O)[O-])cc1,inconclusive: -39.8%
19,c1ccc(-c2nc(-c3ccccn3)no2)cc1,inconclusive: -45.9%
20,CSc1ccc(/C=C/C(=O)Nc2ccccc2)cc1,active: -51.8%
21,COc1ccc(-c2cc(=O)c3cc(OC)ccc3[nH]2)cc1,inconclusive: -41.2%
22,O=C(/C=C/c1ccnc2ccccc12)c1cccs1,inconclusive: -32.2%
23,O=C(Nc1ccc2c3c(cccc13)CC2)c1ccco1,inconclusive: -39.8%

row,SMILES,"activity change, negative = inhibition"
1,COCCn1c(N)c(C(=O)NCC2CCCO2)c2nc3ccccc3nc21 (stereo unspecified),inactive: -21.2%
2,O=C(N/N=C/c1ccc([N+](=O)[O-])s1)c1ccccc1Br,inactive: -2.64%
3,CCOC(=O)CC(NS(=O)(=O)c1cc(-c2cc(C)no2)ccc1C)c1ccc(C)cc1 (stereo unspecified),inactive: -0.187%
4,COc1ccccc1NC(=O)CSC(N)=O,inconclusive: -35.4%
5,C/C(=N\Nc1nc(-c2cc(C)ccc2C)cs1)c1cc2c(ccc3ccccc32)oc1=O,inconclusive: -41.1%
6,CCOC(=O)Cc1ccc2sc(-c3ccccc3)nc2c1,active: -71.7%
7,Clc1ccc(/C=C/c2nc3ccccc3[nH]2)c(Cl)c1,inconclusive: -43.8%
8,CCc1cc(-c2ccc3c(c2)COc2c4ccccc4nn2-3)on1,inconclusive: -34.7%
9,NC(=O)c1ccsc1NC(=O)COC(=O)c1ccccn1,inactive: 13.1%
10,CC/C(=C\C(=O)c1ccncc1)Nc1ccc(O)cc1,active: -50.3%
11,COc1ccc(S(=O)(=O)N2CC=C(C(=O)Nc3ccc(NC(C)=O)cc3)CC2)cc1,inactive: -2.04%
12,COC(=O)C[C@@H]1CC[C@@H]2[C@H](COc3ccc(NC(=O)c4ccc(F)c(F)c4)cc3C(=O)N2C)O1,inactive: -3.36%
13,COc1ccc(CNC(=O)c2ccc(-n3ccnc3)c3ccoc23)cc1OC,inconclusive: -32.4%
14,Cc1cnc(C(=O)Nc2c(-c3ccccc3)[nH][nH]c2=O)cn1,inconclusive: -43.2%
15,CC(/C=C/c1ccco1)=N/NC(=O)c1ccc(C)nc1,inactive: -19.6%
16,COc1cccc(/C=N/NC(=O)c2ccoc2C)c1O,inconclusive: -48.3%
17,O=C1c2c(O)ccc(O)c2C(=O)c2c(NCCNCCO)ccc(NCCNCCO)c21,inconclusive: -42.8%
18,COc1ccc(C(=O)O/N=C(/C)c2cccs2)cc1,active: -92.5%
19,Cc1ccc2c(c1)Cc1nc3ccccc3nc1-2,inconclusive: -41.8%
20,CC(=O)N1CC=C2C(C#N)=C(N)C(C#N)(C#N)C(CCc3ccccc3)C2C1 (stereo unspecified),inconclusive: -40.6%
21,CN(C)c1ccc(N=Nc2nc3ccccc3n2C)cc1,active: -69.5%
22,CC(C)Cn1cc(NC(=O)NCc2ccccc2)c2ccccc2c1=O,inconclusive: -32.6%
